Measurements taken from the supplement of paper PMC3334620.
The full ranking holds about 33,000 sequences; the median of “E-score (-0.5 to 0.5)” is about -0.053, and the highest 2% start at about 0.37. The list shows a part of the results.

Molecular target: Hap1 (UniProt P0CE41)
Assay: PBM E-score (8-mer binding enrichment) (E-score (-0.5 to 0.5)); higher = stronger / more preferred TF binding; most listed sequences are background and not binding sites
Details: protein concentration: 200 nM; construct: GST-DNA-binding domain
In short: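 Bound GST-tagged yeast transcription factors, applied at about 100-200 nM to double-stranded universal all-10-mer Agilent arrays, were detected with fluorescent anti-GST. Scans were normalised with masliner. A modified Wilcoxon-Mann-Whitney statistic, the E-score, was assigned to each ungapped eight-base word pooled with its reverse complement by the Universal PBM Analysis Suite.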

Chain of UniProt P0CE41 (P0CE41 whole entry): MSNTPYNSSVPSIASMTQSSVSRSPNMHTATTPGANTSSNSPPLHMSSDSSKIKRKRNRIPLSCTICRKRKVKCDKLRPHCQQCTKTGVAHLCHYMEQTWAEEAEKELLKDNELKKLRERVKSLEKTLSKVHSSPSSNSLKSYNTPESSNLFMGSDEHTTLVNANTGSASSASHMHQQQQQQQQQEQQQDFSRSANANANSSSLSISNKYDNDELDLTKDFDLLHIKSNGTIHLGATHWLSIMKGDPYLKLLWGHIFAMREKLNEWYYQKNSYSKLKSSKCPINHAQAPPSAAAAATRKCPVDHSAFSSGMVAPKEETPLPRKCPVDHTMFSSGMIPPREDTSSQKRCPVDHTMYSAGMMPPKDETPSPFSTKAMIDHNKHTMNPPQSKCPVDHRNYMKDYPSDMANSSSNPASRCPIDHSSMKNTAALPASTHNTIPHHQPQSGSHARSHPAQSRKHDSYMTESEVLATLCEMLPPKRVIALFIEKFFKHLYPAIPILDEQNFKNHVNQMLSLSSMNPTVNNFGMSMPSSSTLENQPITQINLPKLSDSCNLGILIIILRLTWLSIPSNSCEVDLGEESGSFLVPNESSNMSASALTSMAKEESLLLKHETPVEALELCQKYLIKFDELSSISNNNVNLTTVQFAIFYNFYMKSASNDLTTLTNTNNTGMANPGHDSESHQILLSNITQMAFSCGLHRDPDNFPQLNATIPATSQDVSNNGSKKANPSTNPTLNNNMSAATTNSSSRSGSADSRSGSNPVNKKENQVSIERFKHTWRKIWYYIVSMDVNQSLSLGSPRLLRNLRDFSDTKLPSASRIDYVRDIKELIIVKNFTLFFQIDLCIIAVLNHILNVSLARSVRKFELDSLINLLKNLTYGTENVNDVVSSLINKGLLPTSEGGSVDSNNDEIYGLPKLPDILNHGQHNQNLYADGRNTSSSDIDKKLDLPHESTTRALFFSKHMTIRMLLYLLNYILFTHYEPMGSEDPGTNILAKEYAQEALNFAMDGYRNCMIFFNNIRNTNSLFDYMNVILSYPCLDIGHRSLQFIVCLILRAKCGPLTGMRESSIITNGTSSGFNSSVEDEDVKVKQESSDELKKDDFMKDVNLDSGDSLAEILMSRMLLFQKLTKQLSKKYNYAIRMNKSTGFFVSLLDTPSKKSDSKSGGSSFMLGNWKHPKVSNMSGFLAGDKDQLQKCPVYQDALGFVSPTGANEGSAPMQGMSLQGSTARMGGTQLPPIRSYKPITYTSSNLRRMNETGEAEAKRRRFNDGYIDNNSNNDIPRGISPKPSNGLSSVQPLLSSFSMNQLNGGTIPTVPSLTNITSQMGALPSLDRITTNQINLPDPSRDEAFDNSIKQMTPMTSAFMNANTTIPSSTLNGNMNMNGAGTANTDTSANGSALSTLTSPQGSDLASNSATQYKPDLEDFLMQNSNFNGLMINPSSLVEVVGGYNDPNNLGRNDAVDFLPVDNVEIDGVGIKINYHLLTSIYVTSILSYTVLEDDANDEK

Sequence | PBM E-score
CAATGACG | -0.13
ATGTAAGC | -0.0513
GCCTATCA | -0.068
ATGTGATC | -0.0651
CGTATAAA | 0.153
GGTCGCAA | 0.117
ATCACTTG | -0.229
GCGGGGGA | 0.162
CCATCACC | -0.0491
ATATAGGA | -0.0527
CAGCGTAC | 0.0764
CTCCTTTC | -0.026
AAGCTTTA | -0.0463
GACCCAAC | -0.0485
CCAAGGCA | -0.0858
ACCGTGTC | 0.118
ACACTTCC | 0.0685
AATGTCGC | -0.0228
GGGTCGAC | -0.00638
CTCCGGCA | 0.371
TCAAATAA | 0.0152
ATTTCTCA | -0.121
ATGGGTTC | -0.104
AGGGTATA | 0.254
ACTGTAGA | -0.176

Sequence | PBM E-score
CGGGGTAC | 0.183
CAGGTCGC | -0.16
ACCTCGGG | 0.26
GAGGGTAA | 0.0407
ACTCAATG | 0.0245
ACGATTCT | 0.0345
GTTTTATA | -0.00629
ACAAAACC | -0.00498
GACAGATC | 0.12
AACTCCCT | -0.0179
CATTTATC | 0.00563
GCATCTAC | -0.147
CTGCTCTC | -0.173
GACGACCC | -0.0528
CGCCGTAC | 0.107
ACTCCGAG | 0.401
ACTCAGTA | -0.122
GACTCAGC | -0.154
CCACAAGC | -0.141
CAACGCCG | 0.264
CCGTGTAA | 0.0848
CTACTCAA | -0.143
AAGGCACC | 0.00726
GCGGGGCA | 0.0851
CAGCTTTC | -0.0461

Sequence | PBM E-score
AACAGAAG | -0.114
GCGGTGAC | -0.0172
TAAGGCCA | 0.0187
GCGATTGA | -0.214
CTACGCGC | 0.0813
CGAGCAAG | -0.182
ACAGTTCT | -0.0624
TCTGCGAA | -0.214
ACGTGTCA | -0.181
CTACAATA | -0.124
TAACTGCA | -0.275
CGCTCGTA | 0.0559
AAGTGAGA | -0.16
GCTACAAC | 0.1
TAGCGGGA | 0.111
ATCATCAA | -0.116
ATTCTCTC | -0.0218
TCGATGAA | 0.0545
CGGTCTCA | 0.0992
GTCCCTCA | -0.291
AGTTAAAT | -0.0605
GTCAAGCA | -0.141
TAAGTGGA | -0.0139
AGTCGCTG | -0.213
ATTCAACC | -0.0285

Sequence | PBM E-score
ACAGTAAG | -0.269
ATCTCCAA | -0.0128
CCGGAAGC | 0.336
CTAATGGA | 0.00426
ACGAGGCT | 0.0816
CTATATTC | -0.0182
CCCCGATC | 0.35
GGGCATGA | -0.198
AACGAGGT | -0.189
CCTCCGGA | 0.418
GTGTTTTA | -0.063
CCGAGCAG | 0.282
AACACCAG | -0.173
ATTAACCA | -0.0483
TAGGGGGA | -0.0649
AACTGGTA | -0.108
TTTCAAAA | -0.107
TCAGCAGA | -0.228
AGTACACT | -0.341
GTTCCGAA | 0.331
ACCGCTTC | 0.0179
CCAGGTGA | -0.3
AGGGGGAC | -0.213
ACCTAACC | 0.053
CCAATCTC | 0.00791

Sequence | PBM E-score
CCAAATAA | -0.00664
GTATCTTA | 0.0377
ATGGTATG | -0.278
ACATGACA | -0.185
AAATCAAG | 0.0291
AGGTGCCA | -0.0272
AGATGGAG | -0.177
CTTGATGC | -0.204
ATAATGAT | -0.0511
GAAAAAAC | 0.115
CTTTCTCA | -0.165
ATACGGTA | -0.0465
ATACCACA | -0.0956
GCGGTAGC | 0.176
GAGTAGGC | 0.00602
CACCTGGC | -0.12
ACCCAACC | -0.065
TCGGCAGA | 0.277
AAGAACTT | -0.101
GAGACGAA | -0.188
CTTCGTTC | -0.282
CGTGTTCC | 0.304
CGAGACCC | 0.173
GCGTCTCC | 0.0839
AGTAGATG | -0.196

Sequence | PBM E-score
CAGGCCAC | -0.212
AGCTCCGA | 0.411
CCGCTAAG | 0.263
CGGGCCCG | 0.419
CAGACGCG | -0.195
ACCGGGAA | 0.35
GGGAGTAA | 0.147
GTGACACA | -0.0189
AGGGGTAC | -0.105
CTATTCAA | -0.221
AGCTTGGC | -0.163
ACTCATTG | -0.075
AGCACGCG | -0.00147
AGAGCTGG | -0.00069
GGGGCCAA | -0.122
GACTGTAA | -0.117
GGAGCCCA | -0.138
GCCTTTGA | -0.0978
GTAGTTAA | 0.027
ACTTAGGA | -0.349
GCAGGTGA | -0.153
CTCATGTC | -0.0611
AACGGCTT | 0.0841
AGCCATGG | -0.349
TACGGCTA | -0.0503

Sequence | PBM E-score
ATCGGTTC | 0.338
AGCCTTCC | -0.172
CAGATGAG | -0.299
CTAGGGCC | -0.0734
CCGATCAC | 0.215
TAAACCGA | 0.278
AGGGCCAT | -0.238
AGCCCTGC | -0.193
GTTCGTCA | -0.122
CGTGGGGA | -0.0906
ATACCCTA | -0.203
AATCTCTA | -0.185
CGTTGCAA | -0.104
GCTAAGAC | -0.0114
CTGTATCC | 0.122
CAAGCTCG | 0.124
CCGTTGGC | 0.218
ATAAACGC | 0.193
CACCGCCG | 0.159
CAATATGA | -0.0113
CGGACCTC | 0.31
GCTATAGA | -0.159
CCGGAGTC | 0.356
AGTTTAAC | -0.0331
GATGCGGC | -0.0228

Sequence | PBM E-score
CGAGACTA | 0.0364
CGCTTGGC | -0.208
AGTAGACC | -0.137
CACCCCTA | -0.201
CTGCCTGC | -0.26
GTAGCCCA | -0.292
GCAGGGGA | -0.174
AGCCTGGC | -0.173
CGGAACGC | 0.182
CGGGGCGA | 0.313
AGTACGAT | -0.129
CAGTAGGC | -0.174
AACCCAAG | -0.194
CCGCGCGA | 0.188
GTTATATA | -0.0281
TGTACGAA | -0.0743
CTCGAGAC | 0.0784
ATCAACTC | -0.17
AAGTTGCA | -0.165
AAGCGGCA | 0.0144
GAAGCAAA | -0.178
ACCAACTC | -0.127
ACGCCAGT | -0.11
CTTATACC | 0.195
AGTCTAAA | 0.0165

Sequence | PBM E-score
CCAGAAAC | -0.117
GGGGCCCC | 0.236
CTTCCGAC | 0.0707
GTTTCGTA | 0.11
CTTGTGGC | -0.311
ATTATAAT | 0.176
CACTTAAC | -0.157
ACCTCCGT | 0.286
GTACGTTA | 0.052
ACAATCAG | -0.171
GGGTCTTA | 0.0728
CACGGCAC | -0.0264
CCGCCCGC | 0.3
ATTATTGC | 0.0837
CCTTGTAA | -0.145
AAGCCTCG | 0.0376
GATCAGAC | -0.0881
TAGATTAA | -0.0609
CAATCAAA | -0.235
